Assay results: the supplement of paper PMC8728848
Some of the results follow.

How the values were obtained:
Assay in all cases: glycan array binding signal (z-score within array); higher = stronger binding
Details in all cases: glycan notation: IUPAC condensed, linker removed
[1] = target: Gal(b1-4)GlcNAc(b1-3)Gal(b1-4)Glc
Procedure, shortened: (§1)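 Glycan array data were curated from 3228 arrays in the Consortium for Functional Glycomics database and kept only where the protein sequence was available. Glycan names were converted to IUPAC-condensed notation, and columns mapping to the same glycan were averaged. The binding signal is a within-array Z-score, averaged across arrays of the same protein sequence at different concentrations or buffers and across linkers. Negative Z-scores can be read as non-binding.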

[2] = target: Gal(b1-4)GlcNAc(b1-3)Gal(b1-4)GlcNAc
Procedure, shortened: as §1

[3] = target: Gal(b1-4)GlcNAc(b1-3)Gal(b1-4)GlcNAc(b1-3)Gal(b1-4)GlcNAc
Procedure, shortened: as §1

[4] = target: Gal(b1-4)GlcNAc(b1-3)Gal(b1-4)[Fuc(a1-3)GlcNAc(b1-6)]Gal(b1-4)Glc
Procedure, shortened: as §1

[5] = target: Gal(b1-4)GlcNAc(b1-3)Gal(b1-4)[Fuc(a1-3)]GlcNAc(b1-3)Gal(b1-4)[Fuc(a1-3)]GlcNAc
Procedure, shortened: as §1

[6] = target: Gal(b1-4)GlcNAc(b1-3)GalNAc
Procedure, shortened: as §1

[7] = target: Gal(b1-4)GlcNAc(b1-3)[Gal(b1-4)GlcNAc(b1-6)]Gal(b1-4)GlcNAc
Procedure, shortened: as §1

[8] = target: Gal(b1-4)GlcNAc(b1-3)[Gal(b1-4)GlcNAc(b1-6)]GalNAc
Procedure, shortened: as §1

[9] = target: Gal(b1-4)GlcNAc(b1-3)[GlcNAc(b1-6)]Gal(b1-4)GlcNAc
Procedure, shortened: as §1

[10] = target: Gal(b1-4)GlcNAc(b1-6)Gal(b1-4)GlcNAc
Procedure, shortened: as §1

[11] = target: Gal(b1-4)GlcNAc(b1-6)GalNAc
Procedure, shortened: as §1

[12] = target: Gal(b1-4)GlcNAc(b1-6)[Gal(b1-3)]GalNAc
Procedure, shortened: as §1

[13] = target: Gal(b1-6)Gal
Procedure, shortened: as §1

[14] = target: Gal3S(b1-3)GalNAc
Procedure, shortened: as §1

[15] = target: Gal3S(b1-3)GlcNAc
Procedure, shortened: as §1

[16] = target: Gal3S(b1-3)[Fuc(a1-4)]GlcNAc
Procedure, shortened: as §1

[17] = target: Gal3S(b1-4)Glc
Procedure, shortened: as §1

[18] = target: Gal3S(b1-4)Glc6S
Procedure, shortened: as §1

[19] = target: Gal3S(b1-4)GlcNAc
Procedure, shortened: as §1

[20] = target: Gal3S(b1-4)GlcNAc6S
Procedure, shortened: as §1

[21] = target: Gal3S(b1-4)[Fuc(a1-3)]Glc
Procedure, shortened: as §1

[22] = target: Gal3S(b1-4)[Fuc(a1-3)]Glc6S
Procedure, shortened: as §1

[23] = target: Gal3S4S(b1-4)GlcNAc
Procedure, shortened: as §1

[24] = target: Gal3S6S(b1-4)GlcNAc
Procedure, shortened: as §1

[25] = target: Gal3S6S(b1-4)GlcNAc6S
Procedure, shortened: as §1

[26] = target: Gal4S(b1-4)GlcNAc
Procedure, shortened: as §1

[27] = target: Gal4S6S(b1-4)GlcNAc
Procedure, shortened: as §1

[28] = target: Gal6S(b1-3)GlcNAc
Procedure, shortened: as §1

[29] = target: Gal6S(b1-3)GlcNAc6S
Procedure, shortened: as §1

[30] = target: Gal6S(b1-4)Glc
Procedure, shortened: as §1

[31] = target: Gal6S(b1-4)Glc6S
Procedure, shortened: as §1

[32] = target: Gal6S(b1-4)GlcNAc
Procedure, shortened: as §1

[33] = target: Gal6S(b1-4)GlcNAc6S
Procedure, shortened: as §1

[34] = target: GalNAc(a1-3)Gal
Procedure, shortened: as §1

[35] = target: GalNAc(a1-3)GalNAc
Procedure, shortened: as §1

[36] = target: GalNAc(a1-3)GalNAc(b1-3)Gal(a1-4)Gal(b1-4)Glc
Procedure, shortened: as §1

[37] = target: GalNAc(a1-3)GalNAc(b1-3)Gal(a1-4)Gal(b1-4)GlcNAc
Procedure, shortened: as §1

[38] = target: GalNAc(b1-3)Gal
Procedure, shortened: as §1

[39] = target: GalNAc(b1-3)Gal(a1-4)Gal(b1-4)GlcNAc
Procedure, shortened: as §1

[40] = target: GalNAc(b1-3)Gal(a1-4)Gal(b1-4)GlcNAc(b1-3)Gal(b1-4)Glc
Procedure, shortened: as §1

[41] = target: GalNAc(b1-3)Gal(a1-6)Gal(b1-4)Glc
Procedure, shortened: as §1

[42] = target: GalNAc(b1-3)GalNAc
Procedure, shortened: as §1

[43] = target: GalNAc(b1-4)Gal(b1-4)Glc
Procedure, shortened: as §1

[44] = target: GalNAc(b1-4)GlcNAc
Procedure, shortened: as §1

[45] = target: GalNAc(b1-4)GlcNAc(b1-2)Man(a1-3)[GalNAc(b1-4)GlcNAc(b1-2)Man(a1-6)]Man(b1-4)GlcNAc(b1-4)GlcNAc
Procedure, shortened: as §1

B1: CV-2L (Chromobacterium violaceum), Q7NX84 (protein)
chain: MAQQGVFTLPARINFGVTVLVNSAATQHVEIFVDNEPRAAFSGVGTGDNNLGTKVINSGSGNVRVQITANGRQSDLVSSQLVLANKLNLAVVGSEDGTDMDYNDSIVILNWPLG
glycan array binding signal (z-score) [1]: -0.265
glycan array binding signal (z-score) [2]: -0.352
glycan array binding signal (z-score) [3]: -0.346
glycan array binding signal (z-score) [4]: -0.318
glycan array binding signal (z-score) [5]: -0.258
glycan array binding signal (z-score) [6]: -0.342
glycan array binding signal (z-score) [7]: -0.33
glycan array binding signal (z-score) [8]: -0.347
glycan array binding signal (z-score) [9]: -0.339
glycan array binding signal (z-score) [10]: -0.347
glycan array binding signal (z-score) [11]: -0.149
glycan array binding signal (z-score) [12]: -0.341
glycan array binding signal (z-score) [13]: -0.345
glycan array binding signal (z-score) [14]: -0.352
glycan array binding signal (z-score) [15]: -0.33
glycan array binding signal (z-score) [16]: 1.1
glycan array binding signal (z-score) [17]: -0.342
glycan array binding signal (z-score) [18]: -0.317
glycan array binding signal (z-score) [19]: -0.331
glycan array binding signal (z-score) [20]: -0.325
glycan array binding signal (z-score) [21]: 0.139
glycan array binding signal (z-score) [22]: 0.416
glycan array binding signal (z-score) [23]: -0.344
glycan array binding signal (z-score) [24]: -0.346
glycan array binding signal (z-score) [25]: -0.338
glycan array binding signal (z-score) [26]: -0.355
glycan array binding signal (z-score) [27]: -0.342
glycan array binding signal (z-score) [28]: -0.342
glycan array binding signal (z-score) [29]: -0.343
glycan array binding signal (z-score) [30]: -0.346
glycan array binding signal (z-score) [31]: -0.344
glycan array binding signal (z-score) [32]: -0.341
glycan array binding signal (z-score) [33]: -0.356
glycan array binding signal (z-score) [34]: -0.347
glycan array binding signal (z-score) [35]: -0.33
glycan array binding signal (z-score) [36]: -0.34
glycan array binding signal (z-score) [37]: -0.306
glycan array binding signal (z-score) [38]: -0.331
glycan array binding signal (z-score) [39]: -0.342
glycan array binding signal (z-score) [40]: -0.351
glycan array binding signal (z-score) [41]: -0.338
glycan array binding signal (z-score) [42]: -0.349
glycan array binding signal (z-score) [43]: -0.331
glycan array binding signal (z-score) [44]: -0.337
glycan array binding signal (z-score) [45]: -0.325
